Some of the results follow.
B1: PhoQ; a variant is named by its letters at X, in order, P23837 (parent)
chain: MKKLLRLFFPLSLRVRFLLATAAVVLVLSLAYGMVALIGYSVSFDKTTFRLLRGESNLFYTLAKWENNKLHVELPENIDKQSPTMTLIYDENGQLLWAQRDVPWLMKMIQPDWLKSNGFHEIEADVNDTSLLLSGDHSIQQQLQEVREDDDDAEMTHSVAVNVYPATSRMPKLTIVVVDTIPVELKSSYMVWSWFIYVLSANLLLVIPLLWVAAWWSLRPIEALAKEVRELEEHNRELLNPATTRELTSLVRNLNRLLKSERERYDKYRTTLTDLTHSLKTPLXXLQXXLRSLRSEKMSVSDAEPVMLEQISRISQQIGYYLHRASMRGGTLLSRELHPVAPLLDNLTSALNKVYQRKGVNISLDISPEISFVGEQNDFVEVMGNVLDNACKYCLEFVEISARQTDEHLYIVVEDDGPGIPLSKREVIFDRGQRVDTLRPGQGVGLAVAREITEQYEGKIVAGESMLGGARMEVIFGRQHSAPKDE

Variants of: B1
Assay: enrichment ratio after two sorts for PhoP signalling (ratio (wild type AVST 3.29)); higher = more functional
Conditions: with PhoP (E. coli)

Variant | enrichment ratio
ADDM | ≤ 0.25
VTAA | ≤ 0.25
KLRP | ≤ 0.25
GFWT | ≤ 0.25
EPAE | ≤ 0.25
FHIH | ≤ 0.25
KHYH | ≤ 0.25
PFDF | ≤ 0.25
IFVW | ≤ 0.25
TYTS | 2.26
SYTN | ≤ 0.25
SNMH | 11.9
QHFN | ≤ 0.25
RAGC | ≤ 0.25
DENS | ≤ 0.25
NKHR | ≤ 0.25
GNCI | 14.4
FYWV | ≤ 0.25
KWLT | ≤ 0.25
VQRD | ≤ 0.25
LPPR | ≤ 0.25
WFMD | ≤ 0.25
QGAH | 4.81
PEMC | ≤ 0.25
VEIL | ≤ 0.25
SFQY | ≤ 0.25

Variant | enrichment ratio
LREV | ≤ 0.25
DFYH | ≤ 0.25
HRYP | ≤ 0.25
GHCF | ≤ 0.25
DRFS | ≤ 0.25
EMND | ≤ 0.25
GHLK | ≤ 0.25
TQLR | 2.23
RQND | ≤ 0.25
QTSF | 4.47
MNMV | 8.01
YIYP | ≤ 0.25
WLKI | ≤ 0.25
HMAH | ≤ 0.25
KRKN | ≤ 0.25
KYTI | ≤ 0.25
LNNL | ≤ 0.25
FKEY | ≤ 0.25
SSET | 0.369
FAQI | 0.326
QWLT | ≤ 0.25
HYSY | ≤ 0.25
NPTY | ≤ 0.25
NNND | ≤ 0.25
DWRF | ≤ 0.25
MSWK | ≤ 0.25

Variant | enrichment ratio
RNMC | ≤ 0.25
ITFK | ≤ 0.25
ANDM | ≤ 0.25
LQVV | ≤ 0.25
FWSV | ≤ 0.25
KTVG | ≤ 0.25
RSWQ | ≤ 0.25
KITL | ≤ 0.25
MFVG | ≤ 0.25
ARCC | ≤ 0.25
DYMR | ≤ 0.25
YLNF | ≤ 0.25
FESL | ≤ 0.25
VIQR | ≤ 0.25
DACH | ≤ 0.25
AARE | ≤ 0.25
SYHI | ≤ 0.25
FFAG | ≤ 0.25
PEKI | ≤ 0.25
NFVN | ≤ 0.25
HWDP | ≤ 0.25
EHHQ | ≤ 0.25
AMVV | 9.7
LCDL | ≤ 0.25
FVRW | ≤ 0.25
DANN | ≤ 0.25

Variant | enrichment ratio
VKYM | ≤ 0.25
ALIQ | ≤ 0.25
LVQF | ≤ 0.25
GAIY | ≤ 0.25
IFTD | ≤ 0.25
SMKR | ≤ 0.25
DLYT | ≤ 0.25
ECAF | ≤ 0.25
SVSK | 12.7
HGYH | ≤ 0.25
KHGP | ≤ 0.25
VHPD | ≤ 0.25
GIDK | ≤ 0.25
TEDI | ≤ 0.25
ARLF | 1.96
AQMC | 2.48
PWTQ | ≤ 0.25
QPLM | ≤ 0.25
NRVA | ≤ 0.25
AHTE | ≤ 0.25
APIM | ≤ 0.25
NMVR | ≤ 0.25
FHFE | ≤ 0.25
ENNS | ≤ 0.25
VHTY | ≤ 0.25
RVAL | ≤ 0.25

Variant | enrichment ratio
VEPK | ≤ 0.25
QGSI | 8.26
MEWY | 6.15
NVII | ≤ 0.25
QLQL | ≤ 0.25
SNYH | ≤ 0.25
LELG | 8
WFAP | ≤ 0.25
YRWS | ≤ 0.25
DLGI | ≤ 0.25
TDET | ≤ 0.25
QMQR | ≤ 0.25
DGWA | ≤ 0.25
WAFY | ≤ 0.25
RRHE | ≤ 0.25
GLIN | ≤ 0.25
KTEP | ≤ 0.25
VFYW | ≤ 0.25
KKVC | ≤ 0.25
SWAV | ≤ 0.25
MCNF | ≤ 0.25
EYVW | ≤ 0.25
YECG | 7.36
FMRI | ≤ 0.25
LFGP | ≤ 0.25
RVIF | ≤ 0.25

Variant | enrichment ratio
SIRK | ≤ 0.25
NRRE | ≤ 0.25
QMWI | ≤ 0.25
LRPI | ≤ 0.25
DPTL | ≤ 0.25
WRQI | ≤ 0.25
MMQG | ≤ 0.25
KTSL | ≤ 0.25
SDVR | ≤ 0.25
PETS | ≤ 0.25
PIHQ | ≤ 0.25
KLEK | ≤ 0.25
GARE | ≤ 0.25
KLQL | ≤ 0.25
HSLA | ≤ 0.25
YWFT | ≤ 0.25
ARPT | ≤ 0.25
PMPV | ≤ 0.25
RRDI | ≤ 0.25
VLDL | ≤ 0.25
PQGL | ≤ 0.25
WPAK | ≤ 0.25
IDEM | ≤ 0.25

— a collection of fitness landscapes (doi:10.1126/science.1257360)
